Structures are written as SMILES. Among all 46,000 compounds or so, about 60 (0.1%) were called active. Not shown: some 3% with an inconclusive outcome. The call rests on the fitted dose curve; in most records, active means well fitted inhibition curve with a large enough effect; inconclusive means small, poorly fitted or top-dose-only effect; inactive means no such curve, though single readings can be large or run the other way. This is one part of the list.

The text below walks through data of PubChem BioAssay AID1963576 (National Center for Advancing Translational Sciences (NCATS), 2024).

The experiment can be described thus: Primary qHTS assay for Inhibitors of ovarian cancer metastasis using an organotypic tumor microenvironment (TME) model. Further: nearly all actives have a fitted effect of over 65% in size.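 On activity change, negative = inhibition: plate controls were DMSO wells for no effect and tomatine positive control wells for full effect.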 The settings on record: SKOV3ip1-GFP adhesion/invasion on 3D omental model, fluorescence; series mostly up to 45.8 µM; activity change, negative = inhibition: at the top concentration. In a few lines:
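qHTS, 4-pt dose (0.36-46 umol/L); SKOV3ip1-GFP, 1,200 cells/well, no FBS; primary omental fibroblast/mesothelial co-culture 48 h pre-grown; 2 h RT + 16 h 37 C; PBS wash, 4% PFA; GFP count 488/509 nm.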
(In general: qHTS replaces the single test concentration by a dilution series.)
`Cc1cc(C)n(CC(=O)Nc2ccc(F)c(F)c2)c(=O)c1C#N`: the “activity change, negative = inhibition” value is inactive: 1.23%.
On to `COc1ccc(-n2nc(C(=O)NCCc3ccc(Cl)cc3)c3c4ccccc4n(C)c3c2=O)cc1Cl`, for which the “activity change, negative = inhibition” value is inactive: -1.09%.
Same read-out and setting: then `O=C(Cn1c(=O)n(Cc2ccco2)c(=O)c2ccc(C(=O)NC3CCCC3)cc21)Nc1ccc(F)cc1`, with inactive: 2.03%.
`CC(=O)c1cccc(NC(=O)CCS(=O)(=O)c2cc3c(cc2C)NC(=O)CO3)c1`: the compound was classed as inactive.
On to `CCN(CC)C(=O)C1=C(C)Nc2nc3ccccc3n2C1c1ccc(Br)cc1` (configuration not stated), for which the “activity change, negative = inhibition” value is inactive: 0.308%.
On to `CCc1noc(-c2ccc(NC(C)c3ccccc3)c([N+](=O)[O-])c2)n1` (configuration not stated), for which the result was inactive.
In the case of `CCOC(=O)c1c(NC(C)=O)c2c3c(sc2n1Cc1nc(-c2ccc(Cl)cc2)oc1C)CCCC3`, the “activity change, negative = inhibition” value was inactive: -4.89%.
`COc1ccc(C)cc1NC(=O)C(=O)NCCc1sc(-c2ccc(Cl)cc2)nc1C`: the “activity change, negative = inhibition” value is inactive: -5.86%.
Still for that read-out and setting: the value for `CC(C)Oc1cccc(NC(=O)C2CCN(S(=O)(=O)Cc3ccccc3)CC2)c1` was inactive: -9.4%.
Still for that read-out and setting: then `O=S(=O)(Nc1cccc(Cl)c1)c1ccc2[nH]c3c(c2c1)CCCCCC3`, with inactive: -0.166%; and `CCc1ccc(CNC(=O)c2ccc(CSc3nc4ccncc4n3Cc3ccc(OC)cc3)cc2)cc1`, with inactive: 7.14%.
Consider `CCOc1ccc(C(=O)Nc2c(C(=O)c3ccccc3)oc3ccccc23)cc1`, for which the result was inactive.
On to `O=C(CSc1nnc(COc2ccc(Cl)cc2)o1)Nc1ccccc1`, for which the “activity change, negative = inhibition” value was inactive: 0.332%.
In the case of `Cc1ccccc1-c1nnc(CN2CCN(c3cc(Cl)ccc3C)CC2)o1`, the “activity change, negative = inhibition” value is inactive: -6.02%.
Still for that read-out and setting: the value for `Cc1nc(N2CCCC2)c2c(C(=O)Nc3ccc(C)c(Cl)c3)c(C)oc2n1` was inactive: -0.31%.
Same read-out and setting: then `CCOc1ccccc1C1N=C(N)Nc2nc3ccccc3n21` (configuration not stated), with inactive: -14.9%; and `CCC(CC)C(=O)Nc1cc(-c2cn3cccnc3n2)ccc1OC`, with inactive: 6.62%.
Regarding `CCOC(=O)c1c(S(=O)(=O)N2CCC(C(=O)N3CCN(c4cccc(C)c4C)CC3)CC2)c(C)n(C)c1C`, the compound was called inactive.
`CCOC(=O)N1CCC(NC(=O)c2ccc3c(c2)N(Cc2cccc(C)c2)C(=O)c2ccccc2S3(=O)=O)CC1`: the “activity change, negative = inhibition” value is inactive: -6.01%.
With `COc1ccc(C(CC(=O)Nc2ccc(C)cn2)N2Cc3ccccc3C2=O)cc1OC` (configuration not stated), the “activity change, negative = inhibition” value was inactive: 23.5%.
As to `COC(=O)c1c(C)oc2ccc(N(C(=O)c3ccncc3)S(=O)(=O)c3cc(C)c(C)cc3C)cc12`, the compound was classed as inactive.
On the same count and under the same terms, the value for `COc1cccc(CNC(=O)Cn2c(=O)oc3cc(S(=O)(=O)N4CCCC4)ccc32)c1` was “inactive”; that for `Cc1ccc(-c2ccc(=O)n(Cc3ccc(F)cc3)n2)cc1` was “inactive”.
With `CCC(=O)N1CCc2cc(Br)cc(S(=O)(=O)CCC(=O)Nc3cccc(CC)c3)c21`, the “activity change, negative = inhibition” value is inactive: -6.34%.
Still for that read-out and setting: the value for `Cc1cccc(N2C(=O)C(CC(=O)Nc3cccc(F)c3)N(Cc3cccs3)C2=O)c1` (configuration not stated) was inactive: 12.5%.
With `Cc1ccc(Nc2cc(C)nc3nc(Cc4ccc(Cl)cc4)nn23)cc1`, the result was inactive.
In the case of `O=S(=O)(c1ccc(F)cc1)N1CCC(Oc2ccc(-n3cnnn3)cc2)CC1`, the “activity change, negative = inhibition” value was inactive: -6.24%.
On to `COc1cccc(CNC(=O)c2nnn(CC(=O)Nc3cc(Cl)ccc3C)c2N)c1`, for which the compound was called inactive.
Still for that read-out and setting: then `Cc1nc2cccnc2n1C1CCN(S(=O)(=O)c2ccc(Cl)cc2)CC1`, with “inactive”.
In the case of `CCOc1ccc(CCNC(=O)CCCc2cc(-c3ccc(OCC)cc3)on2)cc1`, the “activity change, negative = inhibition” value is inactive: 28.6%.
Consider `CCn1cc(C(=O)N2CCN(c3cc(Cl)ccc3C)CC2)c2cc(OC)c(OC)cc2c1=O`, for which the result was inactive.
Turning to `CC(NC(=O)C1(c2cccs2)CCOCC1)c1ccccc1` (configuration not stated), the “activity change, negative = inhibition” value is inactive: 1.25%.
In the case of `CCCN(CCC)CCCNC(=O)c1cc2c(=O)oc3ccc(C)cc3c2s1`, the “activity change, negative = inhibition” value was inactive: 23.1%.
In the case of `Cc1ccc(CN2CCSc3ccc(C(=O)Nc4ccc(Cl)cc4)cc32)cc1`, the “activity change, negative = inhibition” value was inactive: 10.5%.
Same read-out and setting: the value for `Cc1ccc(NC(=O)C2CCCN(c3ncnc4c3nc3n4CCCCC3)C2)cc1F` (configuration not stated) was inactive: 10.2%; that for `CN(C)S(=O)(=O)n1cc(/C=C(\NC(=O)c2ccccc2F)C(=O)NCCCn2ccnc2)c2ccccc21` was inactive: 26.2%.
As to `OC(c1cc(C(F)(F)F)nc2c(C(F)(F)F)cccc12)C1CCCCN1` (configuration not stated), the “activity change, negative = inhibition” value is inactive: -29.6%.
As to `Cc1ccccc1CN1CCC(CNc2ncnc3onc(-c4ccc(Cl)cc4)c23)CC1`, the “activity change, negative = inhibition” value was inactive: 1.79%.
As for `O=C(Cc1csc2ccccc12)NCc1cccc(Br)c1`, the “activity change, negative = inhibition” value was inactive: 1.06%.
Still for that read-out and setting: the value for `Cc1ccc2nc(/C(C#N)=C/c3cccc(Br)c3)[nH]c2c1` was inactive: -1.38%; that for `O=C(NCc1ccccc1Cl)C1CCN(S(=O)(=O)c2ccc3c(c2)CCCN3C(=O)C2CCC2)CC1` was inactive: -12.3%; that for `Cc1cc(C)cc(Oc2coc3c(CN4CCN(C)CC4)c(O)ccc3c2=O)c1` was inactive: -5.67%.
The same measure, in the same setting: the value for `COc1ccc(Nc2c(-c3ccc(Cl)cc3)nc3cnccn23)cc1OC` was inactive: 9.85%; that for `O=C(Nc1cccc(C(F)(F)F)c1)C1CCN(c2nnc(-n3cccc3)s2)CC1` was inactive: -2.27%; that for `COc1cc(NS(=O)(=O)c2ccc(NC(=O)C(C)Oc3ccc(Cl)cc3Cl)cc2)nc(OC)n1` (configuration not stated) was inactive: -5.39%.
For `Cc1nc2cccnc2n1-c1cccc(C(=O)NCc2ccc(OC(C)C)cc2)c1`, the “activity change, negative = inhibition” value is inactive: -6.48%.
As for `O=C(O)CC(NS(=O)(=O)c1ccc(Cl)s1)c1ccccc1` (configuration not stated), the “activity change, negative = inhibition” value is inactive: -14.5%.
For the compound `CCOc1ccc(NC(=O)c2c(NC(=O)c3ccco3)sc3c2CCC(C(C)(C)C)C3)cc1` (configuration not stated), the “activity change, negative = inhibition” value is inactive: -4.9%.
For the compound `CCOc1ccc(NC(=O)c2sc3nc4c(cc3c2N)CCCCCC4)cc1`, the “activity change, negative = inhibition” value is inactive: 7.3%.
As to `COc1cccc(C(=O)Nc2cc(-c3cn4cccnc4n3)ccc2C)c1OC`, the call was inactive.
As for `Cc1ccc(OCC(=O)Nc2ccccc2C(=O)OCc2cc(=O)n3nc(C4CC4)sc3n2)cc1`, the “activity change, negative = inhibition” value is inactive: 10.3%.
The same measure, in the same setting: then `O=C(c1cccs1)N(Cc1cccnc1)c1nc2ccc(F)cc2s1`, with inactive: 6.23%; and `CC1CCN(C(=O)c2c(NC(=O)c3ccccc3F)sc3c2CCC(C(C)(C)C)C3)CC1` (configuration not stated), with inactive: -5%; and `Cc1nc2ccccn2c(=O)c1NC(=O)c1c(F)cccc1F`, with inactive: 3.49%.
Turning to `COc1ccc(CCN2CCN(CCCc3ccccc3)CC2)cc1OC`, the “activity change, negative = inhibition” value was inactive: -1.99%.
Same read-out and setting: the value for `CC(=CC(=O)Nc1ccccc1C(=O)O)c1ccc2ccccc2c1` was inactive: -13.8%.
As for `Oc1ccc(-c2nc3ccccn3c2Nc2ccc3c(c2)OCCO3)cc1`, the “activity change, negative = inhibition” value is inactive: -4.57%.
On to `CCCCNS(=O)(=O)c1ccc2nc(-c3cccnc3)cc(C(=O)NCCC)c2c1`, for which the “activity change, negative = inhibition” value is inactive: -5.88%.
Take `CCCN(CCC)CCCNC(=O)C1CCC(CNS(=O)(=O)c2cccc3nsnc23)CC1` (configuration not stated): the compound was classed as inactive.
Same read-out and setting: then `Cc1ccc(CN(Cc2ccco2)C(=O)COc2c(C)cc(C)cc2C)cc1`, with “inactive”.
With `CCn1cc(S(=O)(=O)c2ccc(OC)cc2)c(=O)c2cc(F)c(N3CCC(C)CC3)cc21`, the “activity change, negative = inhibition” value is inactive: -7.34%.
On the same count and under the same terms, then `CNCCCC12CCC(c3ccccc31)c1ccccc12`, with inactive: -23.9%.
